Measurements published in PubChem BioAssay AID485294 (National Center for Advancing Translational Sciences (NCATS), 2010).
Among all 370,000 compounds or so, about 150 (0.041%) were called active. The inconclusive results got no clear call from the source; some entries with a clear call stand among them for comparison. Calls come from the whole dose curve; as a rule, active = well fitted inhibition curve with a large enough effect; inconclusive = small, poorly fitted or top-dose-only effect; inactive = flat fitted curve, though single readings scatter. No potency is given beside an inconclusive call; the fits are too rough.

Molecular target: Beta-lactamase (Escherichia coli (strain K12)) (UniProt P00811)
Assay: qHTS Inhibitors of AmpC Beta-Lactamase (assay with detergent); note: nearly all actives have a fitted effect of over 25% in size
Conditions: AmpC hydrolysis of nitrocefin, absorbance 480 nm, 0.01% Triton; series mostly up to 114 µM
Outline: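 AmpC (5.3 nM in the dispensed reagent) in 20 mM phosphate pH 7.0 with 0.01% (detergent screen) or 0.0001% Triton X-100 was preincubated with compounds for 15 min at room temperature. Nitrocefin was then added from an 800 uM solution, and hydrolysis was followed at 480 nm.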
Potency is the fitted concentration of half-maximal effect; tags give direction and shape of the fitted curve.

Sequence of UniProt P00811 (P00811 whole entry, looked up): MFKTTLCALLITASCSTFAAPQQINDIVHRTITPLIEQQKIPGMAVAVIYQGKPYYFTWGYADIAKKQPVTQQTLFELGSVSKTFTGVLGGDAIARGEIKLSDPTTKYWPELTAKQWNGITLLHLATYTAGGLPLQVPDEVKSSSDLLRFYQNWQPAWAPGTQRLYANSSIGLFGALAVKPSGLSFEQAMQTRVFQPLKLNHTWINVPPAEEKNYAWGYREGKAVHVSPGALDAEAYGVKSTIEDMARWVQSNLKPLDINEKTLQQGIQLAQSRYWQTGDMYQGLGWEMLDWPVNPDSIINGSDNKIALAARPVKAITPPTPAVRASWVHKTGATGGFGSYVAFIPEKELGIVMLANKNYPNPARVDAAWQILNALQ

SMILES	Potency
Cn1ncc2c(NNC(=O)Cc3cccc4ccccc34)ncnc21	inconclusive [inhibitor, full curve, poor fit]
CCc1ccc(S(=O)(=O)c2nnn3c2nc(N2CCOCC2)c2ccccc23)cc1	inconclusive [inhibitor, full curve, poor fit]
C=CCNC(=S)NNC(=O)COc1ccc2cc(Br)ccc2c1	inactive
CNc1nc(-c2ccc3c(c2)CCN3C(=O)c2ccccc2F)cs1	inactive
O=C(Nc1ccccc1F)c1ccncc1	inconclusive [inhibitor, full curve, poor fit]
O=C(Nc1cccc(C(F)(F)F)c1)Oc1ccc(Cl)c2cccnc12	inactive
COc1ccc(CCNC(=O)CCc2ccc(S(=O)(=O)NCC(C)C)cc2)cc1	inconclusive [inhibitor, partial curve]
O=C(C(Cc1ccccc1)N1C(=O)c2ccccc2C1=O)N1CCc2ccccc21 (stereo not given)	inconclusive [inhibitor, full curve, poor fit]
CCCc1c(C)c2cc(C)ccc2[nH]c1=O	inactive
COCc1nnc(NC(=O)c2ccc(NC(=O)C(C)C)cc2)s1	inconclusive [inhibitor, full curve, poor fit]
O=C1CC(C(=O)N(c2ccc(F)cc2)C(C(=O)NC2CCCC2)c2ccccn2)CS1 (stereo not given)	inconclusive [inhibitor, full curve]
NC(=O)COC(=O)c1c2c(nc3ccccc13)CCCCC2	inactive
CCOc1ccc(NC(=O)N2CCC(NC(=O)C(Cc3ccc(OC)c(OC)c3)NC(C)=O)CC2)cc1 (stereo not given)	inconclusive [inhibitor, full curve, poor fit]
Cc1ccn2cc(-c3ccc(Br)cc3)nc2c1	inactive
C/[N+]([O-])=C1\Cc2ccccc2C1=O	inconclusive [inhibitor, full curve, poor fit]
c1ccc(Oc2cccc(CN3CCOCC3)c2)cc1	inconclusive [inhibitor, full curve, poor fit]
N/C(=N/OC(=O)c1ccccc1F)c1nonc1N	inactive
CN(Cc1ccccc1)C(=O)CCSc1nc(-c2ccc3c(c2)OCO3)cc(C(F)(F)F)n1	inconclusive [inhibitor, partial curve, poor fit]
Cc1ccc2nc(NCCCNC(=O)c3cnccn3)c(C#N)cc2c1	inconclusive [inhibitor, single point]
C/C(=N/NC(N)=S)c1ccccc1[N+](=O)[O-]	inactive
CC(NC(=O)Nc1ccccc1)C(c1cccs1)N1CCN(C)CC1 (stereo not given)	inconclusive [inhibitor, full curve]
COc1ccc(N2CCN(C(=O)c3ccc(S(=O)(=O)NCc4ccco4)cc3)CC2)cc1	inconclusive [inhibitor, full curve, poor fit]
CCOC(=O)c1cc2c(=O)n3ccccc3nc2n(CC2CCCO2)c1=NC(=O)c1cccc(C(F)(F)F)c1 (stereo not given)	inconclusive [inhibitor, single point]
COc1ccc(C(=O)Nc2cccnc2Cl)cc1OC	inconclusive [inhibitor, full curve, poor fit]

SMILES	Potency
CCC(=O)N1CCN(c2ccccc2NC(=O)c2cccc(C)c2)CC1	inconclusive [inhibitor, full curve, poor fit]
CC(NC(=O)CCC(=O)c1ccccc1)c1ccc(F)cc1 (stereo not given)	inconclusive [inhibitor, full curve, poor fit]
COc1ccc(C(=O)NCCc2cn3ccc(C)cc3n2)cc1	inconclusive [inhibitor, full curve]
CC(=O)c1sc2c(c1C)c(=O)n(-c1ccc(Cl)cc1)c(=O)n2Cc1ccc(Cl)cc1	inactive
Cc1cc(C)c(Cn2c(C)c(CNCCCc3ccccc3)c(C(=O)O)c2C)c(C)c1	inactive
Cc1ccc(C)c(/C=N/NC(=S)NC(C)C)c1	inconclusive [inhibitor, full curve, poor fit]
O=C(c1cccs1)N1CCN(Cc2cccnc2)CC1	inconclusive [inhibitor, full curve]
CC1(c2ccc(Cl)cc2)NC(=S)N2C1NC(=S)N2c1ccccc1 (stereo not given)	inconclusive [inhibitor, partial curve, poor fit]
COc1ccc(-c2n[nH]c(=S)n2Cc2ccccc2)cc1	inconclusive [inhibitor, full curve, poor fit]
CCN(CC(=O)N1CCN(Cc2ccccc2)CC1)S(=O)(=O)c1ccc(C)cc1	inconclusive [inhibitor, partial curve, poor fit]
O=C(NCC(c1cccs1)S(=O)(=O)c1cccs1)c1ccccc1 (stereo not given)	inactive
COc1ccc(NC(=O)C(NC(=O)OC(C)(C)C)C(C)OCc2ccccc2)cc1 (stereo not given)	inactive
COc1ccc(Cl)c2c1[nH]c1nc(SCc3cccnc3)nnc12	inactive
CCN(Cc1ccccc1)C(=O)C1CCN(c2ncnc3c2nc2n3CCCCC2)CC1	inconclusive [inhibitor, partial curve]
O=C(COC(=O)c1cccs1)NCc1ccco1	inconclusive [inhibitor, partial curve]
COc1ccc(N2CCN(C(=O)c3cccn4c(=O)c5ccccc5nc34)CC2)cc1	inconclusive [inhibitor, single point]
CC(=O)Oc1ccc(NC(=O)CSc2ccccc2)cc1	inactive
O=C(O)c1cc(Nc2cc(Cl)c3nonc3c2[N+](=O)[O-])ccc1O	inactive
N#Cc1c(N)nc2c(c1-c1cccnc1)CCCCC2	inconclusive [inhibitor, partial curve, poor fit]
CCOc1ccccc1NS(=O)(=O)c1cccs1	inactive
COc1ccc(N2CCN(C(=O)CNC(=O)c3nn(-c4ccc(OC)cc4)c(=O)c4ccccc34)CC2)cc1	inconclusive [inhibitor, partial curve]
CC(C(=O)Nc1ccc(Br)cc1C(=O)c1ccccc1)N1CCOCC1 (stereo not given)	inconclusive [inhibitor, full curve, poor fit]
O=C(c1ccc(NS(=O)(=O)c2ccc3[nH]c(=O)[nH]c3c2)cc1)N1CCCCC1	inconclusive [inhibitor, single point]
Cc1nn2c(=O)cc(CSCC(=O)Nc3ccccc3Cl)nc2s1	inactive

SMILES	Potency
CC1CC(C)CN(C(=O)/C=C/c2ccc(S(=O)(=O)N3CCOCC3)cc2)C1 (stereo not given)	inconclusive [inhibitor, single point]
O=C(O)CC1(CC(=O)Nc2ccc3ccccc3c2)CCCCC1	inconclusive [inhibitor, full curve, poor fit]
Cc1n[nH]c(C)c1S(=O)(=O)N1CCCCCC1	inconclusive [inhibitor, full curve, poor fit]
COc1cccc(CNCCNC(=O)c2ccco2)c1OC	inconclusive [inhibitor, full curve, poor fit]
Cc1ccc(NCc2ccco2)cc1C	inactive
O=C(c1cn(Cc2ccccc2)nc1-c1ccccc1)N1CCN(c2ccccn2)CC1	inactive
COc1ccc(C(=O)NN=C2CCCC2)cc1OC	inconclusive [inhibitor, full curve, poor fit]
COCC1CCCC1OS(N)(=O)=O (stereo not given)	inconclusive [inhibitor, full curve]
COc1ccc(CN2CCN(C(=O)c3cccc4ccccc34)CC2)c(OC)c1OC	inconclusive [inhibitor, partial curve, poor fit]
COc1ccc(S(=O)(=O)Nc2ccc(S(=O)(=O)N3CCOCC3)cc2)cc1	inconclusive [inhibitor, full curve, poor fit]
CCCCN(c1ccccc1)S(=O)(=O)c1ccc2c(c1)CCN2C(=O)CCC(=O)O	inactive
CNc1ccccc1C(=O)OCC(C)=O	inconclusive [inhibitor, full curve]
N#C/C(=C/c1ccccc1OCc1ccc(F)cc1)c1ccc(C(=O)O)cc1	inconclusive [inhibitor, partial curve]
O=C(COC(=O)C1CC1)Nc1ccc(Oc2ccccc2)cc1	inconclusive [inhibitor, partial curve]
Cc1oc2cc(O)cc(O)c2c(=O)c1-c1ccc2c(c1)OCCCO2	inactive
COc1cccc(OCc2nn[nH]n2)c1	inactive
COC(=O)c1c(N)n(-c2ccc(N3CCOCC3)cc2)c2nc3ccccc3nc12	inconclusive [inhibitor, partial curve]
Cc1csc(NC(=O)CSC2=NS(=O)(=O)c3ccccc3N2)n1	inconclusive [inhibitor, single point]
CC(C)CN(C(=O)C1=NN(c2ccccc2)C(=O)CC1)c1c(N)n(Cc2ccccc2)c(=O)[nH]c1=O	inactive
Cc1ccc(S(=O)(=O)N2CCC(C(N)=O)CC2)cc1[N+](=O)[O-]	inconclusive [inhibitor, partial curve, poor fit]
O=C(/C=C/c1ccco1)Nc1ccc(Oc2ccc(Cl)cc2)cc1	inactive
COc1ccc(OC)c(CNC(=O)CCNC(=O)Cn2ccc3ccccc3c2=O)c1	inconclusive [inhibitor, partial curve]
